We go through 32 sequences from paper PMC12820563.

The list shows a part of the results. The list includes weakly bound sequences.

This assay deals with T1, MBP-FoxP3dN (UniProt Q99JB6).
T1 sequence: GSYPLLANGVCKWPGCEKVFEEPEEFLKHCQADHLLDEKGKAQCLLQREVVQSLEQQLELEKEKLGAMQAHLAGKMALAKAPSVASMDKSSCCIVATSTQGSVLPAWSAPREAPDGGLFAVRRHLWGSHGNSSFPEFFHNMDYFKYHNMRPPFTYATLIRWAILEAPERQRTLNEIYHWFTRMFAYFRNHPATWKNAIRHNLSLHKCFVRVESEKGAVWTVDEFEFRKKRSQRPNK
Put plainly: PD-seq (MBP pull-down with sequencing). The note with it: 20 mM Tris-HCl pH 7.5, 100 mM NaCl, 1.5 mM MgCl2, 0.4 uM protein, 0.1 uM dsDNA library, 30 min, room temperature, amylose pull-down; high values mean tight binding; double strand, one strand shown.
“GATGATTGTTCTCCCAGCTGATGAATTTCTAAAGTCGAGTAAACAAATTTTCCTAATCTTTCTGTTCAAGCGCCATCTAC”: the binding signal (RPM ratio (pull-down/input)) stood at 0.185. Consider “GATGATTGTTCTCCCAGCTGATGAATTGGAACGATCGAGTAAACAAATTTTCCTAATCTTTCTGTTCAAGCGCCATCTAC”, for which the binding signal (RPM ratio (pull-down/input)) came out at 0.24. The same measure for “GATGATTGTTCTCCCAGCTGATGAATTCTAGTTTTCGAGTAAACAAATTTTCCTAATCTTTCTGTTCAAGCGCCATCTAC”: 0.554. To “GATGATTGTTCTCCCAGCTGATGAATTTCTGACGTCGAGTAAACAAATTTTCCTAATCTTTCTGTTCAAGCGCCATCTAC” belongs 0.261.

With “GATGATTGTTCTCCCAGCTGATGAATTGGGTCAATCGAGTAAACAAATTTTCCTAATCTTTCTGTTCAAGCGCCATCTAC”, the binding signal (RPM ratio (pull-down/input)) was determined as 0.294. The same measure for “GATGATTGTTCTCCCAGCTGATGAATTGTGTGTCTCGAGTAAACAAATTTTCCTAATCTTTCTGTTCAAGCGCCATCTAC”: 3.93. To “GATGATTGTTCTCCCAGCTGATGAATTATGTTTATCGAGTAAACAAATTTTCCTAATCTTTCTGTTCAAGCGCCATCTAC” belongs 8.36; to “GATGATTGTTCTCCCAGCTGATGAATTGAGTGGTTCGAGTAAACAAATTTTCCTAATCTTTCTGTTCAAGCGCCATCTAC”, 1.05; to “GATGATTGTTCTCCCAGCTGATGAATTCTAGTCATCGAGTAAACAAATTTTCCTAATCTTTCTGTTCAAGCGCCATCTAC”, 0.443. The same measure for “GATGATTGTTCTCCCAGCTGATGAATTTGAAATGTCGAGTAAACAAATTTTCCTAATCTTTCTGTTCAAGCGCCATCTAC”: 0.369; for “GATGATTGTTCTCCCAGCTGATGAATTGATCCCGTCGAGTAAACAAATTTTCCTAATCTTTCTGTTCAAGCGCCATCTAC”: 0.234. On to “GATGATTGTTCTCCCAGCTGATGAATTAGGAAATTCGAGTAAACAAATTTTCCTAATCTTTCTGTTCAAGCGCCATCTAC”, for which the binding signal (RPM ratio (pull-down/input)) was found to be 0.517. “GATGATTGTTCTCCCAGCTGATGAATTAATAAAATCGAGTAAACAAATTTTCCTAATCTTTCTGTTCAAGCGCCATCTAC”: the binding signal (RPM ratio (pull-down/input)) was found to be 0.221. The same measure for “GATGATTGTTCTCCCAGCTGATGAATTCATTATCTCGAGTAAACAAATTTTCCTAATCTTTCTGTTCAAGCGCCATCTAC”: 1.12; for “GATGATTGTTCTCCCAGCTGATGAATTCAGGGTGTCGAGTAAACAAATTTTCCTAATCTTTCTGTTCAAGCGCCATCTAC”: 0.785; for “GATGATTGTTCTCCCAGCTGATGAATTGGGGTAGTCGAGTAAACAAATTTTCCTAATCTTTCTGTTCAAGCGCCATCTAC”: 0.459.

As for “GATGATTGTTCTCCCAGCTGATGAATTACTGTTGTCGAGTAAACAAATTTTCCTAATCTTTCTGTTCAAGCGCCATCTAC”, the binding signal (RPM ratio (pull-down/input)) was determined as 1.49. Turning to “GATGATTGTTCTCCCAGCTGATGAATTAGCCGCTTCGAGTAAACAAATTTTCCTAATCTTTCTGTTCAAGCGCCATCTAC”, the binding signal (RPM ratio (pull-down/input)) amounted to 0.45. As for “GATGATTGTTCTCCCAGCTGATGAATTGTTGTATTCGAGTAAACAAATTTTCCTAATCTTTCTGTTCAAGCGCCATCTAC”, the binding signal (RPM ratio (pull-down/input)) was 4.65. In the case of “GATGATTGTTCTCCCAGCTGATGAATTTGTTGAATCGAGTAAACAAATTTTCCTAATCTTTCTGTTCAAGCGCCATCTAC”, the binding signal (RPM ratio (pull-down/input)) was 3.07. To “GATGATTGTTCTCCCAGCTGATGAATTTCCGCCATCGAGTAAACAAATTTTCCTAATCTTTCTGTTCAAGCGCCATCTAC” belongs 2.59; to “GATGATTGTTCTCCCAGCTGATGAATTTGCGTTATCGAGTAAACAAATTTTCCTAATCTTTCTGTTCAAGCGCCATCTAC”, 2.89.

As for “GATGATTGTTCTCCCAGCTGATGAATTTGTCTCTTCGAGTAAACAAATTTTCCTAATCTTTCTGTTCAAGCGCCATCTAC”, the binding signal (RPM ratio (pull-down/input)) came to 3.21.

As to “GATGATTGTTCTCCCAGCTGATGAATTGCGTTACTCGAGTAAACAAATTTTCCTAATCTTTCTGTTCAAGCGCCATCTAC”, the binding signal (RPM ratio (pull-down/input)) came out at 1.77.

As to “GATGATTGTTCTCCCAGCTGATGAATTGTCAGGCTCGAGTAAACAAATTTTCCTAATCTTTCTGTTCAAGCGCCATCTAC”, the binding signal (RPM ratio (pull-down/input)) was found to be 0.295. To “GATGATTGTTCTCCCAGCTGATGAATTACTATAATCGAGTAAACAAATTTTCCTAATCTTTCTGTTCAAGCGCCATCTAC” belongs 0.397; to “GATGATTGTTCTCCCAGCTGATGAATTGACGTTATCGAGTAAACAAATTTTCCTAATCTTTCTGTTCAAGCGCCATCTAC”, 0.79; to “GATGATTGTTCTCCCAGCTGATGAATTACCTACTTCGAGTAAACAAATTTTCCTAATCTTTCTGTTCAAGCGCCATCTAC”, 0.328. Take “GATGATTGTTCTCCCAGCTGATGAATTGTGCTCATCGAGTAAACAAATTTTCCTAATCTTTCTGTTCAAGCGCCATCTAC”: the binding signal (RPM ratio (pull-down/input)) was 0.776. As to “GATGATTGTTCTCCCAGCTGATGAATTTTGGAGATCGAGTAAACAAATTTTCCTAATCTTTCTGTTCAAGCGCCATCTAC”, the binding signal (RPM ratio (pull-down/input)) turned out to be 0.228. As to “GATGATTGTTCTCCCAGCTGATGAATTAGCGTGCTCGAGTAAACAAATTTTCCTAATCTTTCTGTTCAAGCGCCATCTAC”, the binding signal (RPM ratio (pull-down/input)) came to 1.23. Turning to “GATGATTGTTCTCCCAGCTGATGAATTGGGATTCTCGAGTAAACAAATTTTCCTAATCTTTCTGTTCAAGCGCCATCTAC”, the binding signal (RPM ratio (pull-down/input)) amounted to 0.579.
